In this assay the test system is NCI-H196 SCLC complex tumor spheroid viability. Put plainly: Anticancer human tumor NCI-H196 cell line growth inhibition.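 Also: spheroids exposed to compounds for 7 days before readout; 100% = DMSO vehicle control wells.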 The following applies: compound alone 100 µM; stronger effect = lower value. From the text: Multicellular complex tumor spheroid response to DNA repair inhibitors in combination with DNA-damaging drugs
This study explores the anticancer activities of DNA-damaging drugs and inhibitors of DNA damage repair, both as single agents and in combinations. Complex tumor spheroids comprised of malignant cells, endothelial cells and mesenchymal stem cells served as an in vitro model for human solid tumors. This model system incorporates physiologically relevant features and patient-derived or established malignant cell lines with clinically relevant genetic alterations from many tumor types. Twenty-six patient-derived or established malignant cell lines were evaluated representing sarcoma, melanoma, small cell lung cancer (SCLC), non-small cell lung cancer (NSCLC), as well as bladder, ovarian and pancreatic cancers. The concentration ranges selected for each drug and investigational agent were based upon clinically achievable concentrations if the clinical Cmax of the agent was known.
Compounds. […] If the clinical Cmax for an agent had not been determined, the highest concentration tested was 10 microM. […]

Some entries of the source have several records that differ or are many. This is not the full list of results. There may be further records. Values given together repeat one measurement in other runs, samples, wells, individuals or studies. Signs of the kind (2×) count equal records among those shown.

With `Cn1nnc2c(C(N)=O)ncn2c1=O`, the viability, T/C is 104, 109, 103, 114, 105 (2×), 99.5, 83.5, 102% (2×).

These data come from PubChem BioAssay AID1845208 (Molecular Pharmacology Branch, DTP, NCI, 2023).
